53 compounds from PubChem BioAssay AID1346428 (National Center for Advancing Translational Sciences (NCATS), 2018) can be followed below.

The structures appear in SMILES notation. In all, about 48,000 compounds went through this assay and about 1,200 (2.5%) were called active. Another 2% or so got no clear call; they are omitted.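 The calls were made as follows: active = activation of at least 60% and not above a set upper limit (about 1 call in 100 departs from these limits); inconclusive = activation of 40% to 60%, or above that upper limit; inactive = activation under 40%.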 Some of the results follow.

The target in the assay is Probable G-protein coupled receptor 32 (Homo sapiens) (UniProt O75388). The experiment in a line: qHTS for Agonists of Human Resolvin D1 Receptor DRV1. As to conditions: CHO-K1 GPR32 beta-arrestin PathHunter luminescence, 90 min; at 76.9 µM; stronger effect = higher value; zero percent set by DMSO-only wells. In a few lines: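 PathHunter enzyme-fragment complementation, CHO-K1 GPR32 stable line; 2,500 cells/well, overnight attach; cpd 90 min 37 °C 5% CO2; detection reagent 1 h RT; chemiluminescence. DMSO = EC0.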
Chain of UniProt O75388 (O75388 whole entry, looked up, the tested form may be a part): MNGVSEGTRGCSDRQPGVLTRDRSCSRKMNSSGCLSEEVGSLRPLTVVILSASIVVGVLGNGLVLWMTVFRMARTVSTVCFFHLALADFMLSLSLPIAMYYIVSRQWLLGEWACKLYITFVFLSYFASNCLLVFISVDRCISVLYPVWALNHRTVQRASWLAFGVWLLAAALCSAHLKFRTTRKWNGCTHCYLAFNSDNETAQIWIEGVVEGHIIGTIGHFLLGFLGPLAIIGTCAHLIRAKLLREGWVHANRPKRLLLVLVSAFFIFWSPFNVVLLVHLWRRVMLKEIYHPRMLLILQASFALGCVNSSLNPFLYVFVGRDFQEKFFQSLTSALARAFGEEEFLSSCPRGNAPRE
A general note: In qHTS, concentration-response curves come from the screen itself.
Consider `N#Cc1cc([N+](=O)[O-])c2sc(C(N)=O)[n+]([O-])c2c1`, for which the activation was inactive: 21.9%. The result for `CN1CCN(c2nc3c(S(=O)(=O)c4ccc(Cl)cc4)nnn3c3ccsc23)CC1` reads inactive: -0.0358%; that for `CC(=O)Nc1ccc(C)cc1-c1nc2ccccc2n(CC(=O)c2ccc(C)c(C)c2)c1=O`, inactive: -5.93%; that for `CCOC(=O)c1c(N)n(-c2ccc(CC)cc2)c2nc3ccccc3nc12`, inactive: 2.68%.

With `O=C(NCCc1csc(-c2ccc(C(F)(F)F)cc2)n1)C(=O)Nc1ccc(F)c(Cl)c1`, the activation is inactive: -7.23%. The result for `CCOc1ccccc1NS(=O)(=O)c1ccc(N2CCCCS2(=O)=O)cc1` reads inactive: -4.04%.

For the compound `Cc1ccc(N(CC(=O)N2CCN(c3ccccc3)CC2)S(=O)(=O)c2c(C)noc2C)cc1`, the activation is inactive: -3.7%. Regarding `CC(C)CCCC(C)CCCC(C)CCCCC(C)CCCC(C)CCCC(C)C` (stereo not drawn), the activation was inactive: 38.5%.

Consider `Cc1nc(-c2ccc(F)cc2)sc1CCNC(=O)c1cccs1`, for which the activation was inactive: 7.95%. The result for `O=C(CN1C(=O)CSc2ccc(S(=O)(=O)N3CCOCC3)cc21)NCCCN1CCCCC1` reads inactive: 0.489%; that for `Cc1ccc(C)c(NC(=O)Cn2c(SCC(=O)NCc3ccccc3)nc3ccccc32)c1`, inactive: -14.2%. The figure for `CCc1ccc(NC(=O)Cn2c(=O)n(-c3ccccc3C)c(=O)c3c2c2cc(OC)ccc2n3C)cc1` is inactive: -6.46%; for `COc1ccc(NC(=O)CSc2nc3ccccc3nc2N2CCCCC2)cc1` it is inactive: -3.72%; for `CC(=O)N1CCOc2cc(S(=O)(=O)NCc3ccccc3Cl)c(Cl)cc21` it is inactive: -6.66%.

With `CCOc1ccc(NC(=O)Cn2nc3c(cc2=O)CC(C)CC3)cc1` (stereo not drawn), the activation is inactive: -10.2%. With `CCOC(=O)c1[nH]c2c(c1Cc1ccccc1)C(=O)CC(c1ccccc1)C2` (stereo not drawn), the activation is inactive: -30.9%. Regarding `CCN1CCN(C(c2ccccc2Cl)c2sc3nc(-c4ccco4)nn3c2O)CC1` (stereo not drawn), the activation was inactive: -14.5%.

Turning to `CCOC(=O)c1ccccc1NC(=O)N1CCC(CN2CCOCC2)CC1`, the activation was inactive: -15.1%. The result for `CCOc1ccc(N(CC(=O)Nc2ccc(OC)cc2)S(=O)(=O)c2ccc(Cl)cc2)cc1` reads inactive: -3.78%.

Take `Cc1ccc(-c2noc(-c3nnn(CC(=O)Nc4ccc(C)c(Cl)c4)c3N)n2)cc1`: the activation is inactive: 3.44%. As to `CC(C)Oc1ccc(C(=O)NCC(c2ccc(N(C)C)cc2)N2CCc3ccccc32)cc1` (stereo not drawn), the activation is inactive: -25.7%. Consider `CCN(c1ccccc1)S(=O)(=O)c1nnc(NC(=O)C2CCCCC2)s1`, for which the activation was inactive: -15.7%. `COc1ccc2c(c1)c(N1CCCC1=O)c(C(=O)Nc1cc(C)c(Cl)cc1OC)n2C`: the activation was inactive: 13.9%. On to `CCn1c(=O)c2sccc2n2c(CCC(=O)Nc3ccc(F)cc3)nnc12`, for which the activation is inactive: 13.7%. On to `Cc1ccc2c(C)c(C(=O)N(Cc3ccc(N(C)C)cc3)Cc3ccco3)oc2c1C`, for which the activation was inactive: -29.6%. The figure for `O=C(CCSCCc1ccccn1)Nc1ccc(Cl)cc1` is inactive: 7.96%. The figure for `O=C(Nc1ccc(Br)cc1)c1cc(S(=O)(=O)NC2CCCC2)ccc1F` is inactive: 12.2%; for `Cc1ccc2c(c1)cc1c(=O)n(Cc3ccccc3Cl)nc(C)n12` it is inactive: 3.74%. The figure for `COc1ccc(Nc2nn3c(=O)c4cc5c(cc4nc3s2)OCO5)c(OC)c1` is inactive: -6.73%; for `Cc1ccc(Cl)cc1-n1nnc(-c2nc(-c3ccc4c(c3)OCO4)no2)c1C` it is inactive: -5.12%. Consider `Cc1cccc(N(C)S(=O)(=O)c2cc(-c3cnc(C4CC4)o3)ccc2C)c1`, for which the activation is inactive: 9.16%.

For the compound `O=C(CCNS(=O)(=O)c1ccc2c(c1)CCN2C(=O)C1CC1)N1CCN(c2cccc(Cl)c2)CC1`, the activation was active: 60.6%. As to `CCOc1ccc(/C=C/C(=O)Nc2ccc3nc(N(CC)CC)cc(C)c3c2)cc1OC`, the activation was inactive: -21.2%. As to `CCC(=O)N1c2ccc(S(=O)(=O)CCC(=O)Nc3ccc(OC)cc3OC)cc2CC1C` (stereo not drawn), the activation was inactive: -10.1%.

`CCc1ccc(C2c3c(-c4ccccc4O)n[nH]c3C(=O)N2Cc2cccnc2)cc1` (stereo not drawn): the activation is inactive: -12.9%. Turning to `CCC(=O)N1CCc2cc(CNS(=O)(=O)c3ccc(CC(C)C)cc3)ccc21`, the activation was inactive: -11.3%.

Regarding `CCN1CCN(c2ncc3c(n2)CCN(Cc2ccccc2C)C3)CC1`, the activation was inactive: -25.4%. On to `Cc1ccc(CS(=O)(=O)c2ncc(Cl)c(C(=O)Nc3nnc(C(C)C)s3)n2)cc1`, for which the activation was inactive: -12.9%. The result for `CCc1ccc(-n2nc(CO)c(C(=O)NC)n2)cc1` reads inactive: -2.04%. The result for `COc1ccc(-c2nc(CS(=O)CC(=O)NCCc3ccc(Cl)cc3)c(C)o2)cc1OC` (stereo not drawn) reads inactive: -11.6%; that for `CC(C)CCNC(=O)C1CCN(C(=O)c2cc3sccc3n2Cc2ccc(Cl)cc2)CC1`, inactive: -14.7%; that for `CCCS(=O)(=O)N1CC(=O)N(c2ccc(C)c(Cl)c2)C(C)(C(=O)NC2CCCCCC2)C1` (stereo not drawn), inactive: -5.74%. The figure for `Cc1cccc(N2CCN(C(=O)Cn3c(-c4cccs4)cc4ccccc43)CC2)c1C` is inactive: -10.1%; for `Cc1ccc2c(CC(=O)Nc3ccc(S(=O)(=O)N4CCCCC4)cc3)coc2c1C` it is inactive: -10.1%; for `COc1cc(CN(C(=O)c2ccccc2F)C2CCS(=O)(=O)C2)cc(OC)c1OC` (stereo not drawn) it is inactive: -6.42%. In the case of `CN1C(=O)C2(c3ccccc31)N(c1cccc(C(F)(F)F)c1)C(=O)CS2(=O)=O` (stereo not drawn), the activation is inactive: 2.97%. The figure for `CCCCNC(=O)CCCN1C(=O)c2ccccc2Sc2ncccc21` is inactive: -16.6%; for `Oc1c(C(c2ccc(F)cc2)N2CCN(Cc3ccccc3)CC2)sc2nc(-c3ccco3)nn12` (stereo not drawn) it is active: 64.8%. The figure for `COC(=O)c1sccc1S(=O)(=O)N(CC(=O)Nc1cccc(C)c1C)c1ccc(C)c(C)c1` is inactive: -19%; for `COc1ccccc1CNC(=O)Cn1cc2c(n1)-c1c(oc(C(=O)N3CCOCC3)c1C)CC2` it is inactive: -16.5%.

As for `COc1cc(OC)c(NC(=O)Cn2ncn3c(cc4cc(C)ccc43)c2=O)cc1Cl`, the activation was inactive: -9.4%. For `Cc1cccc(NC(=O)CSC2=Nc3ccccc3C3=NC(CCC(=O)NCc4ccco4)C(=O)N23)c1` (stereo not drawn), the activation is inactive: -5.96%. As to `CCc1ccc(-c2cn3nc(CC)sc3n2)cc1`, the activation is inactive: -9.28%.
